Measured values: paper PMC4336329 (PLoS ONE, 2015)
Hit rate of the full screen: of about 310,000 compounds, about 2,200 (0.71%) showed an effect of 50% or more. The effect is printed as a negative number. The list shows a part of the results.

These compounds were tested against human ether-à-go-go-related gene (hERG) potassium channel (human, UniProt Q12809) (assay: primary screen, population patch clamp on CHO cells stably expressing hERG).
Sequence of human ether-à-go-go-related gene (hERG) potassium channel (Q12809 whole entry, looked up): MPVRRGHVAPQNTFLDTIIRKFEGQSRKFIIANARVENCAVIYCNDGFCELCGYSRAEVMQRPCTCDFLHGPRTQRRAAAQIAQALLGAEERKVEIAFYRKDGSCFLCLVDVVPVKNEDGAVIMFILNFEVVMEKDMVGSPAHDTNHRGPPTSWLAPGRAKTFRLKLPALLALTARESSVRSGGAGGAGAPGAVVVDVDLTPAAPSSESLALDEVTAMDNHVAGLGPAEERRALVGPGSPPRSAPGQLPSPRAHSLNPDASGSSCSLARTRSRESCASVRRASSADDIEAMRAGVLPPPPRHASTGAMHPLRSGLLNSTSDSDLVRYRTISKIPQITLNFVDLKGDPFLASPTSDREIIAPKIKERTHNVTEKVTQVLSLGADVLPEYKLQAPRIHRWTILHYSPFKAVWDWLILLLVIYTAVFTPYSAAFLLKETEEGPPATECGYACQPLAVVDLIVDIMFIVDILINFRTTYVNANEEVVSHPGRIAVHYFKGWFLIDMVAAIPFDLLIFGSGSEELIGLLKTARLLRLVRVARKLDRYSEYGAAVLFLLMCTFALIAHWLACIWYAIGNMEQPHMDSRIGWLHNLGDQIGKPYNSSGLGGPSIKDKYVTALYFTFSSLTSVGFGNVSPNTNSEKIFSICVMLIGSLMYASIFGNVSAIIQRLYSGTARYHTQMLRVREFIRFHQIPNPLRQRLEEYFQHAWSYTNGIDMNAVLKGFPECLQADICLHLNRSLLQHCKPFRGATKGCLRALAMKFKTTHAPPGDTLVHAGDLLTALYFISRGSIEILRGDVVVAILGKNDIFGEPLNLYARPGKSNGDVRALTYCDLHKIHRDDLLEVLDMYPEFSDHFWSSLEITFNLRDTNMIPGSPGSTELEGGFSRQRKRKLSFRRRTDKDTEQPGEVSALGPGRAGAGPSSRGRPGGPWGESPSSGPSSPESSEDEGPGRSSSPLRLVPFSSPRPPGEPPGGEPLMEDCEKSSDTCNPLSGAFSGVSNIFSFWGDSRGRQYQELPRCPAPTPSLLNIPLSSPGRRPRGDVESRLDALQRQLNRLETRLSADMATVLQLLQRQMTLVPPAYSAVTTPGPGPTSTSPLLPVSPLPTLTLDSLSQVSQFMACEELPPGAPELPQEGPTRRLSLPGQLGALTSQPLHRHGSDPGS

| SMILES | hERG current change (%, negative = inhibition) at 1uM [%] |
| --- | --- |
| CCOC(=O)c1c2c(n(C)c1C)C(=O)C(=O)c1ccc(Br)cc1-2 | 12.4 |
| CCOc1ccc(NC(=O)c2ccc(NCC(=O)N3CCCCCC3)cc2)cc1 | 5.7 |
| COc1ccc(OCCn2c(=N)n(CCO)c3ccccc32)cc1.Cl | 3.34 |
| CC(C)c1ccc(C2NC(=O)NC3=C2CCc2ccccc23)cc1 (stereo not shown) | -7.39 |
| Cc1ccsc1C(=O)C1CCCN(Cc2ccc(O)cc2)C1 (stereo not shown) | -0.745 |
| COc1ccc(NC(=O)CSc2sc3c(O)cc(=O)[nH]c3c2C#N)c(OC)c1 | 12.2 |
| COc1nc(-c2ccccc2)ccc1-c1noc(C)n1 | 10.8 |
| CCOC(=O)c1c(NC(=O)COC(=O)CNC(=O)c2ccco2)sc(C)c1C | -7.43 |
| Cc1nc2ccccc2c(=O)n1-c1cccc(C(F)(F)F)c1 | -2.22 |
| OC(COc1ccc2c(c1)CCC2)CN1CCN(c2ccccc2F)CC1 (stereo not shown) | 5.87 |
| C/C(=N\Nc1nc(-c2cc(C)ccc2C)cs1)c1cc2ccccc2oc1=O | 15.1 |
| Cc1cc(=O)n2nc(N3CCCC(C(=O)NCc4ccc5c(c4)OCO5)C3)sc2n1 (stereo not shown) | -5.95 |
| CCCCN(CC)CCCNC(=O)c1cc2cc3ccc(C)cc3nc2o1 | -10.1 |
| O=C(COC(=O)c1cnccn1)c1ccc(OC(=O)c2ccccc2)cc1 | 10.9 |
| Cc1conc1NC(c1cccs1)c1ccc2cccnc2c1O (stereo not shown) | 16.1 |
| CCC(CC)C1C(C#N)=C(N)Oc2n[nH]c(C)c21 (stereo not shown) | 4.08 |
| COC(=O)c1c(-c2c(Cl)cccc2Cl)noc1NC(=O)NN1CCCCC1 | 10.9 |
| COc1cc2cc(Oc3ccc4ccc(=O)oc4c3)c(=O)oc2cc1OC(C)=O | 8.43 |
| O=C1C2C(C(=O)N1/N=C/c1ccco1)C1C=CC2C12CC2 (stereo not shown) | 7.68 |
| COc1ccc(-n2nc(C(=O)NCC(=O)NCCC3=CCCCC3)c3ccccc3c2=O)cc1 | 18.9 |
| CCc1cc2c3c(c(=O)oc2cc1OCC(=O)OC)CCCC3 | 14.9 |
| Oc1nc(Nc2cccc(Cl)c2)sc1/C=C1\C=Nc2ccccc21 | 9.18 |

| SMILES | hERG current change (%, negative = inhibition) at 1uM [%] |
| --- | --- |
| O=C(Nc1ccon1)c1nc[nH]c1C(=O)NCc1ccccc1 | 15.5 |
| COCCN(C(=O)COC(=O)c1ccc2c(c1)OCCO2)c1c(N)n(Cc2ccccc2)c(=O)[nH]c1=O | 4.05 |
| O=C(Nc1cccc(F)c1)NC1CC2CCCC(C1)N2C1CC1 (stereo not shown) | 4.85 |
| CC(C)(CC(=O)O)CC(=O)Nc1ccc2c(c1)ncn2CCc1ccccc1 | 13.6 |
| CC(C)(C)c1csc(NNC(=O)c2ccc(Br)cc2)n1 | 11.2 |
| CCOC(=O)CC1C(=O)NCCN1S(=O)(=O)c1ccc(Br)cc1 (stereo not shown) | 6.26 |
| Cc1ccc(CNC(=O)c2ccc(CNc3c(N4CCCC4)c(=O)c3=O)cc2)cc1 | 3.83 |
| COc1ccccc1Cc1nc(-c2ccc(C)cc2)no1 | 3.86 |
| OCC1(CCc2ccccc2)CCN(Cc2ccc3nsnc3c2)CC1 | -69.1 |
| CC(NC(=O)CN1CCN(S(=O)(=O)c2ccc(Br)cc2)CC1)c1ccccc1 (stereo not shown) | 4.1 |
| CCCOc1ccc(C(=O)Nc2ccc(N3CCN(C(=O)c4ccco4)CC3)cc2)cc1 | 20.6 |
| COc1ccc(-c2cc(C(=O)OCC(=O)c3c(N)n(C)c(=O)n(C)c3=O)c3ccccc3n2)cc1 | 13.3 |
| O=C(Nc1ccc(-c2cn3c(n2)SCC3)cc1)c1ccco1 | 12.1 |
| CN(C)CCCN(C(=O)c1ccc(S(=O)(=O)N(C)C2CCCCC2)cc1)c1nc2ccc(Br)cc2s1.Cl | -7.7 |
| COCCN1CCc2[nH]c(=S)[nH]c(=O)c2C1 | 0.554 |
| CCN1CCN(CCC(=O)Nc2ccccc2)CC1 | 9.51 |
| Cc1cc2c(OCC(O)CNC(C)(C)C)cccc2[nH]1 (stereo not shown) | 9.16 |
| CC(C)c1ccc(OCc2ccc(C(=O)O)o2)cc1 | 2.32 |
| COCCCN1CC(=O)N2C(c3ccc(C)cc3)c3[nH]c4ccccc4c3C[C@H]2C1=O (stereo partly shown) | 4.28 |
| Cc1nn(CCCC(=O)Nc2c(F)cc(F)cc2Br)c(C)c1[N+](=O)[O-] | 5.98 |
| Cc1ccc(-c2nnc(Nc3ccc(CC(N)=O)cc3)c3ccccc23)cc1S(N)(=O)=O | 13.2 |
| O=C(NN=C1CCC(=NNC(=O)c2cccnc2)CC1)c1cccnc1 | 19.4 |

| SMILES | hERG current change (%, negative = inhibition) at 1uM [%] |
| --- | --- |
| CCOCCCNC(=O)C(Cc1ccccc1)NS(=O)(=O)c1cccc2nsnc12 (stereo not shown) | 7.61 |
| Cc1ccc(OCC(=O)N2CCC3(CC2)CC(=O)c2ccccc2O3)cc1 | -49 |
| COc1cc(C2C3=C(CCCC3=O)Nc3c2c(C)nn3-c2cccc(C)c2)cc(OC)c1O (stereo not shown) | 8.55 |
| Cc1ccnc(-n2c(-c3ccco3)nc3ccccc3c2=O)c1 | 0.384 |
| CC1(C)Cc2c(sc3nnn(Cc4ccccc4)c(=O)c23)CO1 | 11.2 |
| COc1cccc(CN2CC(C(=O)NC3CCC3)CCC2=O)c1 (stereo not shown) | 18.3 |
| COc1ccc(CN2CCCC(C(=O)Nc3cccc(-n4cccn4)c3)C2)c(F)c1 (stereo not shown) | 12.3 |
| CCOc1ccc(N(CC(=O)O)S(=O)(=O)c2cccnc2)cc1 | 12.8 |
| CCOC(=O)NCc1ccc2c(c1)cc(C)n2C | 13.4 |
| O=C(NC(=S)Nc1nc2c(s1)CCCC2)c1ccc(C(=O)c2ccccc2)cc1 | -1.13 |
| Cc1cccc(C(=O)c2ccccc2C(=O)O)c1 | 16.5 |
| CC(=O)NC(C)C(=O)OCC(=O)Nc1ccc(Br)cc1 (stereo not shown) | 2.05 |
| COc1ccccc1CN1CCN(S(=O)(=O)c2ccc(C)cc2)CC1 | 10.7 |
| CCCn1nnc(NC(=O)c2cccc(Cl)c2)n1 | 11.9 |
| CCOc1cc(S(=O)(=O)NCCCn2ccnc2)ccc1Cl | -8.45 |
| C=CCNC(=O)C1CCN(c2ccc(S(=O)(=O)N3CCOCC3)cc2[N+](=O)[O-])CC1 | -2.79 |
| Cl.c1ccc(C2CNCCc3ccccc32)cc1 (stereo not shown) | -2.35 |
| CCn1nc(C)cc1C(=O)N1CCCC(Nc2ccc(F)c(F)c2)C1 (stereo not shown) | 12 |
| O=C(NNC(=O)c1ccc[nH]1)c1cccc(C(F)(F)F)c1 | 9.97 |
| CCOCCOc1nc2c(c(=O)n(C)c(=O)n2C)n1CCc1ccccc1 | 11.9 |
| O=C(COc1ccccc1)Nc1c2c(nn1-c1ccc(F)cc1)CS(=O)(=O)C2 | 2.4 |
| CCOc1ccc(-c2nnc(SCc3nc4ccccc4[nH]3)n2N)cc1 | -6.73 |

| SMILES | hERG current change (%, negative = inhibition) at 1uM [%] |
| --- | --- |
| COC(=O)c1ccc(CN2C(=O)C(C)N(C(=O)c3c(F)cccc3F)c3ccccc32)cc1 (stereo not shown) | 17.2 |
| CC(CCc1ccccc1)NC(=O)CNC(=O)N1CC(=O)Nc2ccccc21 (stereo not shown) | 18.5 |
| COc1cc(NC(=O)CCN2CC(C)OC(C)C2)cc(OC)c1 (stereo not shown) | 6.56 |
| Cc1ccc(Cl)cc1N(Cc1ccc(C(=O)NCc2cccnc2)cc1)S(=O)(=O)c1ccccc1 | 5.87 |
| CC(C)N(C)C1CCN(C(=O)Nc2ccc(Cl)cc2)CC1 | -19.2 |
| COc1ccc(S(=O)(=O)Nc2ccc(Oc3ccsc3C(=O)O)cc2)cc1 | 16.9 |
| COc1ccc(C2c3ccc(O)cc3Oc3ncn(Cc4ccccc4)c(=N)c32)cc1OC (stereo not shown) | -0.742 |
| COc1ccc(-c2nnc(SCC(=O)N(C)C3CCS(=O)(=O)C3)n2N)cc1OC (stereo not shown) | 13.8 |
| CC(=O)Nc1ccc(NC(=O)CCC(=O)OCC(=O)c2ccc(F)cc2)cc1 | 6.64 |
| O=c1c2cc(O)c(O)cc2oc2cc(O)c(C3OC(CO)C(O)C(O)C3O)c(O)c12 (stereo not shown) | 14.6 |
| O=C(CNC(=O)c1ccc(OC(F)F)cc1)NCc1ccccn1 | 5.05 |
| O=C(Cc1c[nH]c2ccccc12)NCc1cccs1 | 12.5 |
| Cn1c(COc2ccc(Cl)cc2)nc2ccccc2c1=O | -0.497 |
| Cc1ccc(S(=O)(=O)N2CCN(C)CC2c2ccccc2)cc1.Cl (stereo not shown) | 4.32 |
| COc1ccc(S(=O)(=O)N2CCC(C(=O)Oc3ccc(C)cc3)CC2)cc1OC | -7.91 |
| N#CCSc1nc2ccccc2c(=O)n1CCCC(=O)NCC1CCCO1 (stereo not shown) | 3.29 |
| C=CCOc1ccc2c(OC)c3ccoc3nc2c1OC | 15.8 |
| CCOC(=O)C1=C(C(C)=O)C(c2cccnc2)C(C#N)=C(N)O1 (stereo not shown) | 4.41 |
| CNC(=S)NCCc1ccc(OC)cc1 | 1.1 |
| CC(CCc1ccccc1)NC(=O)CN1CCN(c2ccccc2)CC1 (stereo not shown) | -10.4 |
| CCO[C@@H]1OC(C(=O)Nc2ccccc2)=C[C@H](c2coc3ccccc3c2=O)[C@H]1CCCO | -2.01 |
| O=C(COC(=O)CNC(=O)c1ccc(Cl)cc1Cl)NC1CCCCCCC1 | 10.9 |
